Data as given in PubChem BioAssay AID1345082 (National Center for Advancing Translational Sciences (NCATS), 2018).
Screen size: about 94,000 compounds; about 4,000 (4.3%) were called active. The inconclusive results got no clear call from the source; some entries with a clear call stand among them for comparison. The call rests on the fitted dose curve; in most records, active means well fitted inhibition curve with a large enough effect; inconclusive means small, poorly fitted or top-dose-only effect; inactive means no such curve, though single readings can be large or run the other way. Potencies of inconclusive entries are doubtful fits and often do not repeat.

test: Cytotoxic Profiling in NIH 3T3 Cell Line of Diverse Libraries Using Quantitative High-Throughput Screening; details: NIH 3T3 viability, CellTiter-Glo ATP luminescence, 48-72 h; series mostly up to 96.7 µM; further: nearly all actives have a fitted effect of over 55% in size
How it was run: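 Cells were seeded at 400 per well, treated with pin-transferred compound, and kept 48 or 72 hr at 37 °C before CellTiter-Glo addition and luminescence imaging of cellular ATP.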
Potency means the concentration at half of the fitted maximal effect; tags describe the fitted curve by direction and shape.

SMILES | Potency
Cc1ccc(C(=O)N2CCC(CCC(=O)NCCc3c[nH]c4ccccc34)CC2)cc1 | inconclusive: 44.7 µM [inhibitor, partial curve, poor fit]
COc1ccc(Cl)cc1NC(=O)Cn1c(N(C)Cc2ccccc2)nc(C)cc1=O | inconclusive: 20 µM [inhibitor, partial curve]
O=C1COc2ccc(-c3ccoc3)nc2CN1Cc1ccccc1 | inconclusive: 44.7 µM [inhibitor, partial curve, poor fit]
CC1(c2ccccc2)N(Cc2ncccn2)C(=O)OC12CCN(Cc1cccc(O)c1)CC2 (centres undefined) | inconclusive: 50.1 µM [inhibitor, single point]
Cn1cc(-c2cnc3[nH]cc(CC(=O)Nc4cccc(F)c4)c3c2)cn1 | inconclusive: 8.91 µM [inhibitor, full curve, poor fit]
Cn1nc(-c2ccncc2)cc1NC(=O)C1CCCC1 | inactive
O=C(CC1CCCCC1)N1CCCC(c2noc(COc3ccccc3)n2)C1 (centres undefined) | active: 39.8 µM
Cc1cc(C)cc(C(=O)NCc2nnc3ccc(-c4ccccc4)nn23)c1 | inactive
COc1ccc(CN2CCc3nc(C(=O)NCCOc4ccccc4)oc3CC2)cn1 | inconclusive: 56.2 µM [inhibitor, partial curve, poor fit]
O=C(COc1ccc(F)cc1)N1CCN(c2cc(C(F)(F)F)ncn2)CC1 | inconclusive: 39.8 µM [inhibitor, partial curve]
O=C(c1ccc(F)cc1F)N1CCN(c2cc(-c3ccc(Cl)cc3)[nH]n2)CC1 | inconclusive: 28.2 µM [inhibitor, partial curve, poor fit]
COc1ccc2nc3n(c2c1)[C@@H](CNCC(C)(C)C)COC3 | active: 31.6 µM
O=C(C1CC1)N1CCC(n2cc(-c3nc(-c4ccccc4)no3)nn2)CC1 | inconclusive: 44.7 µM [inhibitor, partial curve, poor fit]
O=C(NCc1cccs1)c1nc2sccn2c1-c1cccnc1 | inconclusive: 56.2 µM [inhibitor, partial curve, poor fit]
Cc1ccc(Nc2ccnc(N3CCCC(C(=O)N4CCN(c5ncccn5)CC4)C3)n2)cc1 (centres undefined) | inconclusive: 15.8 µM [inhibitor, full curve, poor fit]
Cc1ccccc1CNC(=O)CN1C(=O)C2(CCNCC2)Nc2ccccc21 | inactive
O=C1c2c(nc(COc3cccc(N4CCOCC4)c3)n2Cc2ccccc2)NCCN1CC1CC1 | inconclusive: 44.7 µM [inhibitor, partial curve, poor fit]
O=C1NCc2ccccc2CC12CCCCN2Cc1cccc(F)c1 (centres undefined) | inconclusive: 70.8 µM [inhibitor, single point]
O=C1CC(c2ccccc2)N(C(=O)CNC(=O)Cn2c(=O)oc3ccccc32)CCCCCCN1 (centres undefined) | inactive
CCCCN(Cc1ccsc1)C(=O)c1cnc(Nc2ccccc2)nc1 | inconclusive: 79.4 µM [inhibitor, partial curve, poor fit]

SMILES | Potency
Cc1ccc(C2NC(=O)N(CC(=O)Nc3c(C)cccc3Cl)C3=C2C(=O)OC3)cc1 (centres undefined) | inactive
CN(C)CC1(O)CCC2(CCN(C(=O)CCCc3ccccc3)CC2)CC1 | inconclusive: 44.7 µM [inhibitor, partial curve, poor fit]
CN1C[C@@H](NC(=O)Nc2ccccc2)C[C@H]1c1nc(-c2ccc(Cl)cc2)no1 | inconclusive: 35.5 µM [inhibitor, partial curve, poor fit]
CN(C)C[C@@H]1CN(C)C[C@H]1NC(=O)NCc1ccc(OC(F)(F)F)cc1 | inconclusive: 44.7 µM [inhibitor, partial curve, poor fit]
C#CCNC(=O)[C@H]1C[C@@H](O)[C@H](O)[C@@H]2N=C(Nc3cccc4ccccc34)S[C@@H]21 | inconclusive: 126 µM [inhibitor, single point]
O=C(NCc1ccc(F)cc1)[C@@H]1C[C@@H](c2ccc(F)cc2)N([S+](=O)([O-])c2ccccc2)C1 | inconclusive: 28.2 µM [inhibitor, full curve]
Cc1nc(C2CC(O)C2)cc(N2CCC(c3nc(C(C)C)no3)CC2)n1 (centres undefined) | inconclusive: 28.2 µM [inhibitor, full curve, poor fit]
CCn1ncc(CN(C)C(=O)c2cc(COc3ccccc3)[nH]n2)c1C | inconclusive: 50.1 µM [inhibitor, partial curve, poor fit]
CN(C)c1ccc(C(=O)N2CCCN(c3cc(-c4ccc(Cl)cc4)[nH]n3)CC2)cc1 | inconclusive: 44.7 µM [inhibitor, partial curve, poor fit]
CC[C@H]1CN(C(C)=O)CC[C@H]1CC(=O)Nc1nccs1 | active: 100 µM
CCOc1cc(C(=O)N2CCN(c3cc(-c4cccs4)[nH]n3)CC2)cc(OCC)c1OCC | inconclusive: 31.6 µM [inhibitor, single point]
Cn1cc(CN[C@H]2C[C@H]3C(=O)NC[C@@H](CCC(=O)N4CCc5ccccc54)N3C2)c2ccccc21 | inconclusive: 89.1 µM [inhibitor, single point]
CCn1c2c(c(=O)n1Cc1ccccc1)CCN(C(=O)c1ncccn1)C2 | inconclusive: 22.4 µM [inhibitor, full curve, poor fit]
COc1cccc(NC(=O)c2cc(-c3ccccc3C(F)(F)F)nc3c2cnn3C)c1 | inconclusive: 11.2 µM [inhibitor, full curve, poor fit]
COc1cccc(CCC(=O)N2CCC3(CC2)N(c2ccccc2)C(=O)CS3(=O)=O)c1 | inconclusive: 50.1 µM [inhibitor, partial curve, poor fit]
Cc1ccc(CNC(=O)C2CCCN(C3CCN(C(=O)C4CC4)CC3)C2)cc1F (centres undefined) | inactive
O=C1Cc2c(-c3ccccc3Oc3ccccc3)n[nH]c2CN1CCc1ccncc1 | inconclusive: 89.1 µM [inhibitor, partial curve, poor fit]
Cn1ncc2c(C(=O)NC3CCCCC3)cc(-c3ccccc3C(F)(F)F)nc21 | inconclusive: 17.8 µM [inhibitor, full curve]
COc1ccccc1CNC(=O)C1CCCN(Cc2cccc(-c3ccc(F)cc3F)c2)C1 (centres undefined) | inconclusive: 44.7 µM [inhibitor, partial curve, poor fit]
COC1CN(c2cccc(F)c2)C12CCN(C(=O)NCCc1ccccc1)CC2 (centres undefined) | inconclusive: 50.1 µM [inhibitor, partial curve, poor fit]

SMILES | Potency
Cc1ccc(S(=O)(=O)N[C@H]2C[C@@H](c3nc(-c4ccc5c(c4)OCO5)no3)N(C)C2)cc1 | inconclusive: 20 µM [inhibitor, full curve, poor fit]
Cn1ccc2c(C(=O)NCc3cccnc3)nc(-c3ccc(N4CCOCC4)cc3)cc21 | inconclusive: 56.2 µM [inhibitor, partial curve, poor fit]
O=C1CC(c2ccccc2)N(Cc2ccncc2)CCCN(C(=O)CCc2ccccc2)CCN1 (centres undefined) | inactive
CC(C)(C)c1ccc(CCCc2nc(C3CCOC3)no2)cc1 (centres undefined) | inconclusive: 35.5 µM [inhibitor, full curve]
O=C(NCCc1ccccn1)c1ccc(-c2nnc3ccc(NC(=O)C4CCC4)cn23)cc1 | inconclusive: 70.8 µM [inhibitor, partial curve, poor fit]
Cn1cc(CCCNC(=O)C2CC(=O)N(C3CC3)C2)cn1 (centres undefined) | inconclusive: 70.8 µM [inhibitor, partial curve, poor fit]
COc1cccc(COC2CN(C(=O)CC3CCCC3)CC(=O)N(Cc3ccccn3)C2)c1 (centres undefined) | inactive
CN1C(=O)C(c2ccccc2)CC12CCN(c1ccnc(N)n1)CC2 (centres undefined) | inconclusive: 89.1 µM [inhibitor, partial curve, poor fit]
CCN1CCN(C(=O)c2cc(C(C)(C)C)nc3c2cnn3C)CC1 | inconclusive: 112 µM [inhibitor, partial curve, poor fit]
COc1cccc(C(=O)NC2CCN(c3cc(-c4ccccc4)[nH]n3)CC2)c1OC | inconclusive: 44.7 µM [inhibitor, partial curve, poor fit]
COc1ccccc1CN1CC(c2noc(-c3cc(C)cc(C)c3)n2)CC1=O (centres undefined) | inconclusive: 50.1 µM [inhibitor, partial curve, poor fit]
CCOc1cccc2c1OC[C@@H]1CN(CCOC)C(=O)CCN(C(=O)c3ccccc3)[C@H]21 | inconclusive: 70.8 µM [inhibitor, partial curve, poor fit]
COCCn1cnc2ccc(Nc3ccc(C(F)(F)F)cc3)nc2c1=O | inconclusive: 79.4 µM [inhibitor, partial curve]
COc1ccccc1Nc1ccnc(N2CCCC(C(=O)NC3CCOC3)C2)n1 (centres undefined) | inconclusive: 44.7 µM [inhibitor, partial curve, poor fit]
CCCCN1C(=O)c2ccccc2C(C(=O)NCc2cccnc2)C12CCCCC2 (centres undefined) | inactive
CN1C[C@@H](NS(=O)(=O)c2ccc(Cl)cc2)C[C@H]1c1nc(-c2ccncc2)no1 | inconclusive: 79.4 µM [inhibitor, partial curve]
CCOCCn1c(=O)[nH]c2cc(C(=O)NCc3n[nH]c(C)n3)ccc21 | inactive
c1ccc(-c2ccc3ncc(Nc4ncccn4)n3n2)cc1 | inconclusive: 56.2 µM [inhibitor, partial curve, poor fit]
CCN1CCN(c2ccc(-c3cccc(N)c3)nn2)CC1 | inconclusive: 70.8 µM [inhibitor, single point]
